{
  "source": "the supplement of paper PMC3334620",
  "note": "Over roughly 33,000 sequences, “E-score (-0.5 to 0.5)” has its median near -0.04; the highest 2% begin near 0.36. The list shows a part of the results.",
  "data": [
    {"target": "T1, Hmlalpha2 (UniProt P0CY09)", "T1 sequence": "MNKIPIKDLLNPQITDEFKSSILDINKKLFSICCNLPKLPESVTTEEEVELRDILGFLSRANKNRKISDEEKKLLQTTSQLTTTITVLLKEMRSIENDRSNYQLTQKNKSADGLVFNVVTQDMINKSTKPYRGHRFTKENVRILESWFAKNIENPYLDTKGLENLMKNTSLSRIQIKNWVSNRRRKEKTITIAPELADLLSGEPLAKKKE", "experiment": "PBM E-score (8-mer binding enrichment) (E-score (-0.5 to 0.5)); higher = stronger / more preferred TF binding; most listed sequences are background and not binding sites", "conditions": "protein concentration: 200 nM; construct: GST-full length", "outline": "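PURExpress in vitro transcription/translation supplied GST-tagged yeast transcription factors, either full-length or DNA-binding domain. Applied at about 100-200 nM to universal all-10-mer Agilent arrays double-stranded by primer extension, the bound protein was detected with fluorescent anti-GST. E-scores, modified Wilcoxon-Mann-Whitney statistics, were given by the Universal PBM Analysis Suite to ungapped eight-base words pooled with their reverse complements after masliner normalisation.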", "values": [
      {"sequence": "GTGTGTGA", "PBM E-score": 0.205},
      {"sequence": "AAATCGTA", "PBM E-score": 0.0949},
      {"sequence": "GTTCTTCA", "PBM E-score": 0.0278},
      {"sequence": "CACACAGG", "PBM E-score": 0.149},
      {"sequence": "ACAGACTC", "PBM E-score": -0.0748},
      {"sequence": "GATGTTGC", "PBM E-score": -0.0127},
      {"sequence": "GCTGCCAA", "PBM E-score": -0.129},
      {"sequence": "ATATGGCA", "PBM E-score": 0.00219},
      {"sequence": "CACCCACG", "PBM E-score": 0.056},
      {"sequence": "CGCTGTCA", "PBM E-score": -0.167},
      {"sequence": "ACCAGTTA", "PBM E-score": 0.0772},
      {"sequence": "AATCCTCG", "PBM E-score": -0.164},
      {"sequence": "CCGTTTAA", "PBM E-score": -0.00198},
      {"sequence": "AGTGTCTC", "PBM E-score": -0.253},
      {"sequence": "GCTGCGGA", "PBM E-score": -0.259},
      {"sequence": "GGACCCTA", "PBM E-score": -0.301},
      {"sequence": "GTGTATCA", "PBM E-score": 0.263},
      {"sequence": "ACAACAAG", "PBM E-score": 0.298},
      {"sequence": "CAGCACAC", "PBM E-score": -0.042},
      {"sequence": "CTAGCACA", "PBM E-score": -0.0578},
      {"sequence": "ACGTGCAT", "PBM E-score": 0.231},
      {"sequence": "ACTTCCCC", "PBM E-score": -0.218},
      {"sequence": "TTCGACAA", "PBM E-score": 0.279},
      {"sequence": "CGAGTAAC", "PBM E-score": 0.191},
      {"sequence": "CCCCAACG", "PBM E-score": 0.0317},
      {"sequence": "ACTCGTCA", "PBM E-score": 0.0364},
      {"sequence": "CTTAGGGA", "PBM E-score": 0.0427},
      {"sequence": "AAGTTAGG", "PBM E-score": -0.0362},
      {"sequence": "AGTGTCAG", "PBM E-score": -0.0525},
      {"sequence": "ACTCCATC", "PBM E-score": -0.0316},
      {"sequence": "ATTAACCG", "PBM E-score": 0.0455},
      {"sequence": "CAGTACTG", "PBM E-score": 0.0834},
      {"sequence": "ATGGATGC", "PBM E-score": -0.0116},
      {"sequence": "GACTCTAC", "PBM E-score": -0.149},
      {"sequence": "TACTGGAA", "PBM E-score": 0.071},
      {"sequence": "GGAGGGCA", "PBM E-score": -0.142},
      {"sequence": "CGGTCTAG", "PBM E-score": -0.119},
      {"sequence": "AAAATACG", "PBM E-score": 0.133},
      {"sequence": "CAATTTCA", "PBM E-score": -0.0193},
      {"sequence": "GTCCTAAC", "PBM E-score": 0.0264},
      {"sequence": "CACAGCGC", "PBM E-score": -0.0719},
      {"sequence": "CAATCGTA", "PBM E-score": 0.156},
      {"sequence": "ACTAGGGC", "PBM E-score": -0.192},
      {"sequence": "AAGGGGGG", "PBM E-score": -0.381},
      {"sequence": "CGCCGCCG", "PBM E-score": -0.0863},
      {"sequence": "ATCCAAAG", "PBM E-score": 0.102},
      {"sequence": "GTTTGTTA", "PBM E-score": 0.26},
      {"sequence": "ATGCGCGG", "PBM E-score": -0.0649},
      {"sequence": "AAACTGCG", "PBM E-score": -0.0299},
      {"sequence": "ATGGCAGA", "PBM E-score": -0.0394},
      {"sequence": "ATTGATCG", "PBM E-score": 0.083},
      {"sequence": "CCGCGCCG", "PBM E-score": -0.0597},
      {"sequence": "CCCGAGTC", "PBM E-score": -0.129},
      {"sequence": "ATGATGCG", "PBM E-score": 0.077},
      {"sequence": "CAACGTGA", "PBM E-score": 0.11},
      {"sequence": "TACGTTCA", "PBM E-score": 0.239},
      {"sequence": "AATCCTTC", "PBM E-score": -0.0524},
      {"sequence": "CACACCAC", "PBM E-score": 0.0299},
      {"sequence": "ACACCAAC", "PBM E-score": 0.0119},
      {"sequence": "GGTCCGAA", "PBM E-score": -0.0133},
      {"sequence": "ACGCTACA", "PBM E-score": 0.173},
      {"sequence": "GCGGAACC", "PBM E-score": -0.23},
      {"sequence": "CCATCTTC", "PBM E-score": -0.15},
      {"sequence": "TCACAGGA", "PBM E-score": 0.0453},
      {"sequence": "TACATATA", "PBM E-score": 0.374},
      {"sequence": "AGACTAGA", "PBM E-score": -0.166},
      {"sequence": "TGTTGTAA", "PBM E-score": 0.401},
      {"sequence": "CCTTGCCC", "PBM E-score": -0.198},
      {"sequence": "AGCCAAGG", "PBM E-score": -0.161},
      {"sequence": "AAAACTTA", "PBM E-score": 0.221},
      {"sequence": "ATAACTTG", "PBM E-score": 0.217},
      {"sequence": "TCCGTCAA", "PBM E-score": -0.0303},
      {"sequence": "ATTTACAA", "PBM E-score": 0.453},
      {"sequence": "AATAACCG", "PBM E-score": -0.0577},
      {"sequence": "AATTTCAG", "PBM E-score": -0.0151},
      {"sequence": "ACGGCCCC", "PBM E-score": -0.437},
      {"sequence": "ACAGCAAG", "PBM E-score": 0.058},
      {"sequence": "GACGTGAA", "PBM E-score": -0.0003},
      {"sequence": "AACTAGCC", "PBM E-score": -0.0814},
      {"sequence": "GAAGCGGC", "PBM E-score": -0.131},
      {"sequence": "AGGGGGGC", "PBM E-score": -0.403},
      {"sequence": "CTAGTCGC", "PBM E-score": -0.164},
      {"sequence": "CTAGACAA", "PBM E-score": 0.0678},
      {"sequence": "CAGGAACA", "PBM E-score": 0.0389},
      {"sequence": "GTATTGCA", "PBM E-score": 0.118},
      {"sequence": "TATATTCA", "PBM E-score": 0.112},
      {"sequence": "CCAAGTGG", "PBM E-score": 0.0248},
      {"sequence": "TCTGTGAA", "PBM E-score": 0.0508},
      {"sequence": "CCCGATAA", "PBM E-score": -0.0827},
      {"sequence": "TAGTACCA", "PBM E-score": -0.0256},
      {"sequence": "CAGTTATA", "PBM E-score": 0.0134},
      {"sequence": "CGCTCGGA", "PBM E-score": -0.102},
      {"sequence": "AACCCCTC", "PBM E-score": -0.215},
      {"sequence": "ACCTTCCT", "PBM E-score": -0.0704},
      {"sequence": "CCGTAGAC", "PBM E-score": -0.136},
      {"sequence": "CAATAACG", "PBM E-score": 0.215},
      {"sequence": "CATCAGCG", "PBM E-score": 0.0761},
      {"sequence": "CAAAAAAA", "PBM E-score": 0.0591},
      {"sequence": "TACGCTAA", "PBM E-score": 0.236},
      {"sequence": "ACGTGTTC", "PBM E-score": 0.211},
      {"sequence": "TATATGGA", "PBM E-score": -0.137},
      {"sequence": "AGTTCCAC", "PBM E-score": 0.0103},
      {"sequence": "ATCCAAAC", "PBM E-score": 0.0909},
      {"sequence": "CGGCGCGC", "PBM E-score": -0.205},
      {"sequence": "AACCAGCC", "PBM E-score": -0.0281},
      {"sequence": "AGATTCAC", "PBM E-score": -0.00821},
      {"sequence": "TAGGCCGA", "PBM E-score": -0.269},
      {"sequence": "CTTATTTA", "PBM E-score": 0.066},
      {"sequence": "AAAAGGTC", "PBM E-score": -0.0222},
      {"sequence": "CGAGTGGA", "PBM E-score": -0.137}
    ]}
  ]
}
